Measured values reported in PubChem BioAssay AID504845 (National Center for Advancing Translational Sciences (NCATS), 2011).
Several values for one entry are separate records, joined by “and”; a condition that tells them apart may be missing. Equal values may be shown once. Hit rate of the full screen: of about 390,000 compounds, about 150 (0.038%) were called active. The inconclusive results got no clear call from the source; some entries with a clear call stand among them for comparison. Calls come from the whole dose curve; as a rule, active = well fitted inhibition curve with a large enough effect; inconclusive = small, poorly fitted or top-dose-only effect; inactive = no such curve, though single readings can be large or run the other way. A potency beside an inconclusive call is a rough fit, not a confirmed value.
% is set by controls: 0 for no effect and ±100 for the full control effect; potency is the fitted concentration of half-maximal effect; tags give direction and shape of the fitted curve.
Note: nearly all actives have a fitted effect of over 75% in size.

Each molecule was assayed against Regulator of G-protein signaling 4 (Homo sapiens) (UniProt P49798) (assay: Inhibitors of Regulator of G Protein Signaling (RGS) 4: qHTS). Conditions: Transcreener GDP fluorescence polarization, RGS4-accelerated GTP hydrolysis; series mostly up to 114 µM; activity change, negative = inhibition: at the top concentration.
Chain of UniProt P49798 (P49798 whole entry, looked up): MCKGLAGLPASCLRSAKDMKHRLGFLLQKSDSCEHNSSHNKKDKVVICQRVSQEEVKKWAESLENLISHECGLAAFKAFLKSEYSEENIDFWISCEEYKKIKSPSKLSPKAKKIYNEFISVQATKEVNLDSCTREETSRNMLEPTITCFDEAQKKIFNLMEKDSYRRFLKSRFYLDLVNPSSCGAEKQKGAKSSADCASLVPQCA
In short: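 MLSMR compounds (23 nl, pin-transferred) preincubated 10 min at room temperature with a 500nM (2x) first reagent, then RGS4 at 900nM (2x) plus Transcreener GDP mix added; fluorescence polarization (620/688 nm) read before and after 90 min at 30 °C.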
With N#CC1=C(N)SC(N)=C(C#N)C1c1ccnc2ccccc12 the Potency was inconclusive: 56.2 µM [inhibitor, partial curve, poor fit].
With Cc1cc(C)cc(Nc2ccc(C(=O)O)cc2N)c1 the Potency was inconclusive: 70.8 µM [inhibitor, partial curve, poor fit].
For Cc1sc(NC(=O)COc2ccccc2)c(C#N)c1C, the Potency was inconclusive: 79.4 µM [inhibitor, partial curve, poor fit].
With CC(=O)c1cccc(N=c2scc(-c3ccc(S(=O)(=O)N4CCOCC4)cc3)n2CCO)c1 the Potency was inconclusive: 44.7 µM [inhibitor, partial curve, poor fit].
CC(=O)Nc1nc(=S)n(-c2ccccc2)[nH]1 was tested, and the Potency was inconclusive: 89.1 µM [inhibitor, single point].
With O=C(CN1CCCCCC1)NC(c1ccccc1)c1ccccc1 the “activity change, negative = inhibition” value was inactive: 13.7%.
In the case of O=C(O)CN1C(=O)/C(=C\c2cc(Br)ccc2OCc2ccc(F)cc2)SC1=S, the Potency is reported as inconclusive: 100 µM [inhibitor, partial curve, poor fit].
In the case of Cn1cnnc1SCC(=O)Nc1sc2c(c1C(N)=O)CCC2, the Potency is reported as inconclusive: 39.8 µM [inhibitor, partial curve, poor fit].
With COC(=O)[C@@]1(Cc2ccc(OC)cc2)[C@@H]2C(=CC(=O)[C@H]2CC(=O)C(=O)N2CCCC2)CN1C(=O)c1ccccc1 the Potency was inconclusive: 50.1 µM [inhibitor, partial curve, poor fit].
O=C(NCc1ccccc1Cl)c1ccc(NC(=O)N2CCSc3ccccc32)cc1 was tested, and the “activity change, negative = inhibition” value was inactive: -2.78%.
In the case of COc1ccc(OC)c(NC(=O)c2c(NCc3ccc(N(C)C)cc3)sc3c2CCCC3)c1, the Potency is reported as inconclusive: 79.4 µM [inhibitor, single point].
For CCOC(=O)CS(=O)(=O)c1nc(-c2ccccc2)cc(C(F)(F)F)n1, the Potency was inconclusive: 31.6 µM [inhibitor, full curve, poor fit].
CN(Cc1ccco1)S(=O)(=O)c1nnc(NC(=O)c2ccccc2)s1 was tested, and the Potency was inconclusive: 89.1 µM [inhibitor, partial curve, poor fit].
Cc1ccc(S(=O)(=O)n2nc(-c3ccco3)nc2NCc2ccc(N(C)C)cc2)cc1 was tested, and the “activity change, negative = inhibition” value was inactive: 4.84%.
With O=C1NN(c2ccccc2)C(=O)/C1=C/c1coc2ccccc2c1=O the Potency was inconclusive: 89.1 µM [inhibitor, single point].
For CCC(=O)Nc1cccc(SC)c1, the “activity change, negative = inhibition” value was inactive: -9.09%.
In the case of Cc1ccc2nc(SCC(=O)NCCc3ccccc3)nc(=O)n2c1, the “activity change, negative = inhibition” value is reported as inactive: -1.35%.
For CCCCc1nc2cc(C(=O)N3CCC(O)CC3)ccc2o1, the “activity change, negative = inhibition” value was inactive: -1.08%.
With CCOc1cc(/C=C2\C(=O)ON=C2C)ccc1OCc1ccccc1 the Potency was inconclusive: 31.6 µM [inhibitor, full curve, poor fit].
For Cc1cc(C)c(C)c(S(=O)(=O)N2C(=S)NC(=O)C2C(C)C)c1C (stereo not given), the Potency was inconclusive: 100 µM [inhibitor, single point].
O=C1OCc2ccc(NC(=O)c3sccc3Cl)cc21 was tested, and the Potency was inconclusive: 44.7 µM [inhibitor, partial curve, poor fit].
COc1ccc2nc3ccccc3nc2c1N was tested, and the Potency was inconclusive: 35.5 µM [inhibitor, partial curve, poor fit].
COc1ccccc1N=Nc1nc(-c2ccccc2)c(-c2ccccc2)[nH]1 was tested, and the “activity change, negative = inhibition” value was inactive: -19.9%.
For Cc1ccc(CNC(=O)CCc2nnc(Cc3ccc(-c4ccccc4)cc3)o2)o1, the Potency was inconclusive: 79.4 µM [inhibitor, single point].
In the case of c1cnc2c(c1)ccc1cccnc12, the Potency is reported as inconclusive: 79.4 µM [inhibitor, partial curve, poor fit] and inconclusive: 4.22 µM [inhibitor, partial curve].
With Cc1nn2c(-c3ccco3)ccnc2c1-c1ccc(Cl)cc1 the “activity change, negative = inhibition” value was inactive: 1.84%.
With Cc1c(C(=O)Nc2nc(-c3ccccn3)cs2)oc2ccccc12 the Potency was inconclusive: 17.8 µM [inhibitor, full curve, poor fit].
For O=C(c1ccccc1)c1nccc2ccccc12, the Potency was inconclusive: 79.4 µM [inhibitor, single point].
For COc1cc2c(cc1OC)C(C1C(=O)CC(C)CC1=O)N(C(=O)CCl)CC2 (stereo not given), the Potency was inconclusive: 89.1 µM [inhibitor, single point].
Clc1cccc(-n2ncc3c(Nc4ccc5c(c4)OCCO5)ncnc32)c1 was tested, and the “activity change, negative = inhibition” value was inactive: -6.49%.
With CCn1nc(C)cc1-c1nnc(Sc2ncc([N+](=O)[O-])s2)n1C the Potency was inconclusive: 50.1 µM [inhibitor, partial curve, poor fit].
For N=c1nc(-c2ccccc2)n(-c2ccccc2)s1, the Potency was inconclusive: 25.1 µM [inhibitor, full curve, poor fit].
For Cc1c(C(=O)N2CC(C)OC(C)C2)sc2nc(-c3ccc(F)cc3)cn12 (stereo not given), the Potency was inconclusive: 89.1 µM [inhibitor, single point].
For CCCOc1ccc(C(=O)Nc2ccccc2[N+](=O)[O-])cc1, the Potency was inconclusive: 89.1 µM [inhibitor, single point].
In the case of CCOC(=O)c1cc(C)n(Cc2cccc(OC)c2OC)c1C, the “activity change, negative = inhibition” value is reported as inactive: -9.82%.
With O=C1c2ccccc2C(Nc2ccc(S(=O)(=O)N3CCCCC3)cc2)N1Cc1ccco1 (stereo not given) the Potency was inconclusive: 56.2 µM [inhibitor, partial curve, poor fit].
For CCCCCCCCc1nc(=S)[nH][nH]1, the Potency was inconclusive: 100 µM [inhibitor, partial curve, poor fit].
For C(=N\Nc1nncc2ccccc12)/c1ccccn1, the “activity change, negative = inhibition” value was inactive: 12.9%.
In the case of COc1ccccc1NC(=O)c1oc2ccccc2c1NC(=O)Cc1cccs1, the Potency is reported as inconclusive: 89.1 µM [inhibitor, partial curve, poor fit].
In the case of CCOC(=O)N1CCN(CCC(=O)c2ccc(Cl)cc2)CC1, the Potency is reported as inconclusive: 17.8 µM [inhibitor, full curve, poor fit].
With Cc1cccc(C(=O)N2CCCN(C(=O)c3cccc(C)c3)CC2)c1 the Potency was inconclusive: 89.1 µM [inhibitor, single point].
For COc1ccc(Sc2ccc(/C=C3\C(=O)NN(c4ccccc4)C3=O)o2)cc1, the Potency was inconclusive: 28.2 µM [inhibitor, full curve, poor fit].
For COC(=O)c1c(NC(C)=O)sc(C(=O)Nc2ccccc2F)c1C, the Potency was inconclusive: 50.1 µM [inhibitor, partial curve, poor fit].
In the case of COc1ccc2cc(C3CC(c4cccs4)=NN3C(C)=O)c(Cl)nc2c1 (stereo not given), the “activity change, negative = inhibition” value is reported as inactive: -29.7%.
With COc1ccc(C(=O)Nc2nc(N3C(=O)c4ccccc4C3=O)n(-c3ccccc3)n2)cc1 the “activity change, negative = inhibition” value was inactive: 0.324%.
In the case of CCC(C)(C)NC(=O)C(c1cccc(OC)c1OC)N(CC(C)C)C(=O)CCC(=O)Nc1cc(C)on1 (stereo not given), the Potency is reported as inconclusive: 17.8 µM [inhibitor, full curve, poor fit].
For CCc1c(C)sc(NC(=O)c2cccs2)c1C(N)=O, the Potency was inconclusive: 100 µM [inhibitor, partial curve, poor fit].
For CCC(NC(C)C)C(O)c1ccc(O)c(O)c1 (stereo not given), the Potency was inconclusive: 23.8 µM [inhibitor, single point].
For O=C(N=Nc1c(O)[nH]c2ccccc12)Nc1ccccc1, the Potency was inconclusive: 89.1 µM [inhibitor, single point].
With CCSc1nnc(NC(=O)C2CCCN(S(=O)(=O)c3cnc[nH]3)C2)s1 (stereo not given) the Potency was inconclusive: 79.4 µM [inhibitor, partial curve, poor fit].
In the case of CCOC(=O)c1ccc(OC(=O)c2cn(-c3ccc(C)cc3)c(=O)c3ccccc23)cc1, the “activity change, negative = inhibition” value is reported as inactive: -24.8%.
COc1ccc(-c2csc(N3CCN(c4cc5c(cc4Cl)nc(-c4ccncc4)n5CCOCCO)CC3)n2)cc1 was tested, and the Potency was inconclusive: 17.8 µM [inhibitor, full curve, poor fit].
For NNC(=O)C(Cc1ccccc1)NC(=O)OCc1ccccc1 (stereo not given), the Potency was inconclusive: 50.1 µM [inhibitor, partial curve, poor fit].
O=C(O)CSc1nnnn1C1CCCCC1 was tested, and the Potency was inconclusive: 17.8 µM [inhibitor, partial curve, poor fit].
With O=C(CSc1ncn[nH]1)c1ccc2c(c1)OCCO2 the Potency was inconclusive: 79.4 µM [inhibitor, partial curve, poor fit].
With CCOC(=O)c1ccc(-c2c(-c3ccc4c(c3)OCO4)noc2C)cc1F the “activity change, negative = inhibition” value was inactive: 11.6%.
CCn1c(CSc2nnc(-c3ccncc3)n2C)nc2cc(C(=O)O)ccc21 was tested, and the Potency was inconclusive: 28.2 µM [inhibitor, full curve, poor fit].
For N#CC1=C(N)N(c2ccc(Br)cc2)C2=C(C(=O)CCC2)C1c1cccnc1 (stereo not given), the Potency was inconclusive: 56.2 µM [inhibitor, partial curve, poor fit].
Cc1ccc(NC(=O)c2cc(N3C(=O)C=CC3=O)ccc2N2CCOCC2)cc1Cl was tested, and the Potency was inconclusive: 20 µM [inhibitor, full curve, poor fit].
For COc1ccc(N(C(=O)c2snc(C(N)=O)c2N)C(C(=O)NC2CCCC2)c2ccco2)c(OC)c1 (stereo not given), the “activity change, negative = inhibition” value was inactive: -3.96%.
For COCc1c(N)c(C)nc(Cl)c1C#N, the Potency was inconclusive: 31.6 µM [inhibitor, full curve, poor fit].
With O=[N+]([O-])c1ccc(N/N=C/C=C/c2ccco2)cc1 the Potency was inconclusive: 31.6 µM [inhibitor, full curve, poor fit].
In the case of Cc1ccc(C)c(NC(=O)CN(C)C(=O)c2ccc3[nH]c4c(c3c2)CC(C)CC4)c1 (stereo not given), the Potency is reported as inconclusive: 89.1 µM [inhibitor, single point].
Cc1c(C(=O)OC(C)C(C)C[N+](C)(C)C)oc2ccccc12 (stereo not given) was tested, and the “activity change, negative = inhibition” value was inactive: -18.4%.
With Cc1cc(NC(=O)c2c(F)cccc2F)n(-c2nc3ccccc3[nH]2)n1 the “activity change, negative = inhibition” value was inactive: 5.72%.
